{"source": "the antibiotic and cytotoxicity screens of Wong et al. (2023)", "note": "The other results are listed elsewhere or left out.", "data": [{"test_system": "HSkMC (human skeletal muscle cells)", "experiment": "cytotoxicity call (relative viability < 0.9)", "conditions": "10 µM", "values": [{"smiles": "O=C(O)c1ccc(O)c(O)c1O", "cytotoxicity call": "inactive"}, {"smiles": "CO[C@H]1CN(C)C(=O)c2ccc(NC(=O)C3CC3)cc2OC[C@H](C)N(C(=O)CN2CCOCC2)C[C@@H]1C", "cytotoxicity call": "inactive"}, {"smiles": "C[C@H](CO)N1C[C@H](C)[C@@H](CN(C)S(=O)(=O)c2cn(C)cn2)Oc2ccc(NC(=O)Nc3ccc(F)cc3)cc2C1=O", "cytotoxicity call": "inactive"}, {"smiles": "O=C(C[C@H]1C[C@H]2c3cc(NC(=O)NC4CCCC4)ccc3O[C@H]2[C@H](CO)O1)NCc1ccc2c(c1)OCO2", "cytotoxicity call": "inactive"}, {"smiles": "Cc1ccc(S(=O)(=O)N(C)C[C@H]2Oc3ccc(NC(=O)CCCN(C)C)cc3C(=O)N([C@@H](C)CO)C[C@@H]2C)cc1", "cytotoxicity call": "inactive"}, {"smiles": "C[C@H]1CN([C@@H](C)CO)C(=O)c2cc(NC(=O)c3ccncc3)ccc2O[C@H]1CN(C)S(=O)(=O)c1cccs1", "cytotoxicity call": "inactive"}, {"smiles": "Cc1noc(C)c1NC(=O)N[C@@H]1CC[C@@H](CC(=O)NCCCN(C)C)O[C@@H]1CO", "cytotoxicity call": "inactive"}, {"smiles": "C[C@@H]1CN([C@H](C)CO)C(=O)Cc2cc(NC(=O)CCN3CCOCC3)ccc2O[C@H]1CN(C)S(=O)(=O)c1ccc(Cl)cc1", "cytotoxicity call": "inactive"}, {"smiles": "Cc1cc(C(=O)Nc2cccc3c2O[C@H](CN(C)Cc2ccncc2)[C@@H](C)CN([C@@H](C)CO)C3=O)n(C)n1", "cytotoxicity call": "inactive"}, {"smiles": "Cc1ccc(S(=O)(=O)N(C)C[C@@H]2OCCCC[C@H](C)Oc3ccc(NC(=O)NC4CCCCC4)cc3C(=O)N([C@@H](C)CO)C[C@H]2C)cc1", "cytotoxicity call": "inactive"}, {"smiles": "N[C@@H](COP(=O)(O)O)C(=O)O", "cytotoxicity call": "inactive"}, {"smiles": "C[C@@H]1CCCCO[C@H](CN(C)Cc2ccncc2)[C@H](C)CN([C@@H](C)CO)C(=O)c2cc(NC(=O)c3ccccc3)ccc2O1", "cytotoxicity call": "active"}, {"smiles": "C[C@@H]1CCCCO[C@H](CN(C)S(=O)(=O)c2ccccc2)[C@H](C)CN([C@@H](C)CO)C(=O)c2cc(NS(=O)(=O)c3cn(C)cn3)ccc2O1", "cytotoxicity call": "inactive"}, {"smiles": "COc1cc(OC)nc(N=CNO)n1", "cytotoxicity call": "inactive"}, {"smiles": "O=C(C[C@H]1C=C[C@@H](NC(=O)C2CC2)[C@H](CO)O1)NCCCN1CCOCC1", "cytotoxicity call": "inactive"}, {"smiles": "COc1ccc(NC(=O)Nc2cccc3c2O[C@@H](CN(C)C(=O)Nc2ccc(C(F)(F)F)cc2)[C@H](C)CN([C@H](C)CO)C3=O)cc1", "cytotoxicity call": "inactive"}, {"smiles": "C[C@@H]1CCCCO[C@@H](CN(C)Cc2ccncc2)[C@H](C)CN([C@H](C)CO)C(=O)c2cc(NC(=O)c3ccccc3)ccc2O1", "cytotoxicity call": "inactive"}, {"smiles": "COc1nc(C)nc(Cl)c1NC1=NCCN1", "cytotoxicity call": "inactive"}, {"smiles": "CC(C)[C@@H](CO)N1C(=O)[C@@H]2[C@H]3C(=O)O[C@H](C)CC/C=C\\[C@H]3O[C@]23C=CCN(Cn2nnc4ccccc42)C(=O)[C@@H]13", "cytotoxicity call": "inactive"}, {"smiles": "C[C@H]1CN([C@@H](C)CO)C(=O)c2cccc(NS(=O)(=O)c3ccc(Cl)cc3)c2O[C@@H]1CN(C)S(=O)(=O)c1cn(C)cn1", "cytotoxicity call": "inactive"}, {"smiles": "CC(C)CC#Cc1cnc2c(c1)C(=O)N([C@H](C)CO)C[C@@H](C)[C@@H](CN(C)S(=O)(=O)c1cn(C)cn1)O2", "cytotoxicity call": "inactive"}, {"smiles": "CC[N+](CC)(CC)CCOc1cccc(OCC[N+](CC)(CC)CC)c1OCC[N+](CC)(CC)CC", "cytotoxicity call": "inactive"}, {"smiles": "COc1ccc(S(=O)(=O)N(C)C[C@@H]2Oc3cc(C#CC4CCCC4)ccc3S(=O)(=O)N([C@H](C)CO)C[C@H]2C)cc1", "cytotoxicity call": "inactive"}, {"smiles": "C[C@@H](N)CCP(=O)(O)O", "cytotoxicity call": "inactive"}, {"smiles": "Cc1noc(C)c1NC(=O)Nc1cccc2c1O[C@@H](CN(C)S(=O)(=O)c1cn(C)cn1)[C@H](C)CN([C@@H](C)CO)C2=O", "cytotoxicity call": "inactive"}, {"smiles": "CCCCCCc1ccc(O)cc1O.Nc1c2ccccc2nc2ccccc12", "cytotoxicity call": "inactive"}, {"smiles": "NC[C@H]1Cc2ccccc2O1", "cytotoxicity call": "inactive"}, {"smiles": "C[C@@H]1CN([C@@H](C)CO)C(=O)c2cc(C3=CCCC3)cnc2O[C@@H]1CN(C)C(=O)c1ccc2c(c1)OCO2", "cytotoxicity call": "inactive"}, {"smiles": "C[C@@H]1CN([C@H](C)CO)S(=O)(=O)c2ccc(-c3ccc(C(=O)N(C)C)cc3)cc2O[C@@H]1CN(C)C(=O)C1CC1", "cytotoxicity call": "inactive"}, {"smiles": "O=C([O-])C(O)C(O)C(O)C(O)C(O)CO.O=C([O-])C(O)C(O)C(O)C(O)C(O)CO.[Ca+2]", "note": "(stereo not given)", "cytotoxicity call": "inactive"}, {"smiles": "C=CC(=O)N[C@@H]1CN(c2nc(Nc3cn(C)nc3OC)c3ncn(C)c3n2)C[C@H]1F", "cytotoxicity call": "inactive"}, {"smiles": "Cc1ccc(S(=O)(=O)Nc2ccc3c(c2)C(=O)N([C@H](C)CO)C[C@@H](C)[C@H](CN(C)C(=O)Nc2ccccc2)OCCCC[C@H](C)O3)cc1", "cytotoxicity call": "inactive"}, {"smiles": "O=C(C[C@@H]1C[C@@H]2c3cc(NC(=O)Nc4ccc(C(F)(F)F)cc4)ccc3O[C@@H]2[C@H](CO)O1)NCCc1ccccc1", "cytotoxicity call": "inactive"}, {"smiles": "CC(C)NC(=O)Nc1ccc2c(c1)CC(=O)N([C@H](C)CO)C[C@@H](C)[C@@H](CN(C)S(=O)(=O)c1ccc(F)cc1)O2", "cytotoxicity call": "inactive"}, {"smiles": "COc1ccc(-n2c(N)cc(=O)[nH]c2=O)cc1", "cytotoxicity call": "inactive"}, {"smiles": "C[C@@H]1CCCCO[C@@H](CN(C)Cc2ccc(C(=O)O)cc2)[C@H](C)CN([C@@H](C)CO)C(=O)c2cc(NS(=O)(=O)c3ccccc3)ccc2O1", "cytotoxicity call": "inactive"}, {"smiles": "CC(=O)N1C[C@@H]2C(=O)N(C)C3(CCN(S(=O)(=O)Cc4ccccc4)CC3)[C@H]2C1", "cytotoxicity call": "inactive"}, {"smiles": "Cc1ncc([N+](=O)[O-])n1CCO", "cytotoxicity call": "inactive"}, {"smiles": "C[C@H](CO)N1C[C@H](C)[C@@H](CN(C)S(=O)(=O)c2ccccc2)Oc2c(NS(=O)(=O)c3ccc(F)cc3)cccc2C1=O", "cytotoxicity call": "inactive"}, {"smiles": "C[C@H]1CN([C@@H](C)CO)S(=O)(=O)c2ccc(C#CC3CC3)cc2O[C@@H]1CN(C)Cc1ccc(F)cc1", "cytotoxicity call": "active"}]}]}
